52 molecules from the supplement of paper PMC11369174, “Proteome-scale characterisation of motif-based interactome rewiring by disease mutations” (Molecular Systems Biology, 2024) can be followed below.

What all share (assay): mean normalised NGS count of phage-displayed peptide after selection on bait (% of reads); baits are purified protein domains named by gene / domain / UniProt id / residues; peptides come from disordered regions of human proteins; higher = stronger enrichment / binding
Test [1] addresses T1, MSN_FERM_1_P26038_1_322.
T1 chain: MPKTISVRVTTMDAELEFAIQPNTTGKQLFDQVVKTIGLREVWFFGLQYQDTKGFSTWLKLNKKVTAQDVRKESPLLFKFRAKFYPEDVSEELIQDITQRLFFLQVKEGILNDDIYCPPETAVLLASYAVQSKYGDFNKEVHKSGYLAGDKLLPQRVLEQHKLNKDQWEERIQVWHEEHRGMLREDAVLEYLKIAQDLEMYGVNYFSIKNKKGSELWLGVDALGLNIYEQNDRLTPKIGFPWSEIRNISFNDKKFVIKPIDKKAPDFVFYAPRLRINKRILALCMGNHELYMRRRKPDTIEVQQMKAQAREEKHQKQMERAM

In test [2] the target is MAP1LC3B_ATG8__Q9GZQ8_2_119. As to conditions: replicate selections in which the peptide was seen: 6.
The target of test [3] is T2, RDX_FERM_1_P35241_5_295.
T2 chain: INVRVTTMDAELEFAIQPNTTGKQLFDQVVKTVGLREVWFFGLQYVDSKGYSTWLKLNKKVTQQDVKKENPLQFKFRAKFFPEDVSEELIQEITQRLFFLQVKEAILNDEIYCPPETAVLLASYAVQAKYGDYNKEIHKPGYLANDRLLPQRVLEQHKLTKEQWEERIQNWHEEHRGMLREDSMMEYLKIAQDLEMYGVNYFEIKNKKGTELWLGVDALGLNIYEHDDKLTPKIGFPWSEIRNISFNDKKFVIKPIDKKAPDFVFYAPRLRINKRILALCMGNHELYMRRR

For test [4], the target named is MDM2_p53-binding-domain__Q00987_17_125.
Test [5] deals with MK08_Pkinase__P45983_1_363.
Chain of MK08_Pkinase__P45983_1_363 (chain, as listed by the source): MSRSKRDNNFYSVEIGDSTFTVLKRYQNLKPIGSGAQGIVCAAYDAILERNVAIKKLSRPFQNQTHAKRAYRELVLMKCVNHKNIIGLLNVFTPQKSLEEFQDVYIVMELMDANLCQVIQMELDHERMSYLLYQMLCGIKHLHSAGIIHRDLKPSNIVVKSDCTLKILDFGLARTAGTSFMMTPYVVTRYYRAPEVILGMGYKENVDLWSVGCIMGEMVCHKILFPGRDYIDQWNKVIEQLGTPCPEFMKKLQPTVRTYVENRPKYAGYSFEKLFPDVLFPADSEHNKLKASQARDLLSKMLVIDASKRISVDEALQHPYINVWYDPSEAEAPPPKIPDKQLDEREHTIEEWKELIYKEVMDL
[6] abbreviates: replicate selections in which the peptide was seen: 2.
The mark [7] stands for this setting: replicate selections in which the peptide was seen: 5.
The mark [8] stands for this setting: replicate selections in which the peptide was seen: 3.
Where [9] appears, read: replicate selections in which the peptide was seen: 4.
Setting [10] is: replicate selections in which the peptide was seen: 6.

The list shows a part of the results. These are enrichments in a pooled selection; single values are uncertain.

Take WYPTNMEELVTVDEVG [RBM20 900-915 wt]: the “mean normalised NGS count” value in test [1] (setting [6]) turned out to be 0.235. Regarding GYVVEHQKVGDKAWIK [TTN 21633-21648 mut Q8WZ42.E21644K], in test [1] (setting [7]), the “mean normalised NGS count” value amounted to 0.0608. Consider NTHLLPLRAMDFEVLS [ZNF469 3007-3022 mut Q96JG9.T3016M], for which the “mean normalised NGS count” value in test [2] is 0.0594. Regarding YYDFSKGIDHKKSDDG [UBIAD1 104-119 mut Q9Y5Z9.R119G], the results for the “mean normalised NGS count” value in test [1] (setting [8]) and in test [3] (setting [8]) were 0.0109 and 0.039, respectively. As to DMTKQKEFFDVWPVLM [PDE6A 281-296 wt], the “mean normalised NGS count” value in test [4] (setting [7]) is 0.0284.

Turning to EYQFHVKAYNEKGKSD [TTN 25207-25222 mut Q8WZ42.R25211H], in test [1] (setting [9]), the “mean normalised NGS count” value was 0.0637. Take QTSKRHDSYTFPELKL [BRCA1 687-702 mut P38398.D695Y]: the results for the “mean normalised NGS count” value in test [1] (setting [9]) and in test [3] (setting [7]) were 0.117 and 0.205, respectively. Turning to DMTKQKEFFDVWLVLM [PDE6A 281-296 mut P16499.P293L], in test [4] (setting [10]), the “mean normalised NGS count” value stood at 17.4. YYDFSKGIDHKKSDGR [UBIAD1 104-119 mut Q9Y5Z9.D118G]: the figures for the “mean normalised NGS count” value in test [1] (setting [8]) and in test [3] (setting [8]) were 0.0219 and 0.0697, respectively.

As for YQVADIPQPQGSIINP [IRF6 111-126 wt], the results for the “mean normalised NGS count” value in test [1] (setting [6]) and in test [3] (setting [8]) were 0.0446 and 0.23, respectively. For ATDFEVLSTKFEMQDL [ZNF469 3015-3030 wt], in test [2], the “mean normalised NGS count” value came to 0.97. On to MYDIISSPSKDSTKLT [NIPBL 344-359 wt], for which the “mean normalised NGS count” value was 0.104 in test [1] (setting [9]) and 0.00645 in test [3] (setting [6]). As for QLDISEPYKVYRIVPE [IRF8 100-115 wt], the “mean normalised NGS count” value in test [1] (setting [6]) is 0.068. Regarding YFVSHDQMMQDISNNE [CASK 789-804 wt], the “mean normalised NGS count” value in test [1] (setting [8]) was 0.0424. For the molecule YWFPPPSQYNVSEIPL [ARSB 449-464 mut P15848.S464L], the “mean normalised NGS count” value in test [1] (setting [6]) was 0.00581; in test [3] (setting [8]), 1.91. Regarding AYEPQLNRLKEKAQQL [SYNE1 3225-3240 wt], the “mean normalised NGS count” value in test [5] (setting [6]) is 0.924. For SAVLSWDVPENDGGAP [TTN 27220-27235 wt], the “mean normalised NGS count” value in test [1] (setting [6]) amounted to 0.00202. For the molecule YWFPPPSQYNVSEIPS [ARSB 449-464 wt], the “mean normalised NGS count” value is 0.0304 in test [1] (setting [6]) and 0.317 in test [3] (setting [8]). For SYSISGILGITSPSAD [PAX5 178-193 wt], the “mean normalised NGS count” value amounted to 0.552 in test [1] (setting [7]) and 5.94 in test [3] (setting [7]).

As for MYNIQSQAPSITESST [CBL 734-749 wt], the “mean normalised NGS count” value in test [1] (setting [9]) is 0.327; in test [3] (setting [10]) it was 24.7.

Take YDVYGGENEVIPEVLR [STOX1 607-622 mut Q6ZVD7.E608D]: the “mean normalised NGS count” value in test [1] (setting [7]) came to 0.0681. As for GGEEVGPLELEIKRLS [CCDC40 745-760 wt], the “mean normalised NGS count” value in test [5] (setting [10]) is 49.6.

Turning to YQVSTHKQSESAHGRT [FLG 2416-2431 mut P20930.E2422K], the “mean normalised NGS count” value in test [1] (setting [7]) came to 0.0469. Take SYEFVSPSPPADVSER [BARD1 179-194 wt]: the “mean normalised NGS count” value in test [1] (setting [8]) was 18.9; in test [3] (setting [7]) it was 9.21. Regarding YYLVHTGEKPHEAQVA [PRDM1 621-636 mut O75626.H621Y], the entries for the “mean normalised NGS count” value in test [1] (setting [6]) and in test [3] (setting [9]) were 0.368 and 0.362, respectively. Turning to YTYNVSNLDVRQLSAP [KMT2D 4894-4909 wt], the entries for the “mean normalised NGS count” value in test [1] (setting [8]) and in test [3] (setting [6]) were 0.425 and 0.0121, respectively. For the molecule LVSKLDWLEASSGILE [RYR1 546-561 mut P21817.R552W], the “mean normalised NGS count” value in test [5] (setting [6]) was 0.00818. In the case of TYTPNVHMVSTTLPVD [RAF1 258-273 mut P04049.S259Y], the “mean normalised NGS count” value in test [1] (setting [7]) worked out at 1.29; in test [3] (setting [9]), 0.109. For SFQVNTSKAGVAPLQV [FLNA 1470-1485 mut P21333.D1474N], in test [1] (setting [9]), the “mean normalised NGS count” value is 28.2. The same measure, in the same setting: then GYVVEHQKVGDEAWIK [TTN 21633-21648 wt], with 0.0681. As to EYNVESIDGQPSAFTA [RPL5 129-144 mut P46777.G140S], the “mean normalised NGS count” value in test [1] (setting [9]) stood at 0.0811.

Take SYDTGEVKVTVENPEG [TTN 1904-1919 mut Q8WZ42.A1914V]: the “mean normalised NGS count” value in test [1] (setting [9]) came out at 0.136. On the same count and under the same terms, then RYDVDDPFSVEEGVSY [SLC7A14 695-710 mut Q8TBB6.F708V], with 0.0194; and EYNVESIDGQPGAFTA [RPL5 129-144 wt], with 0.0248. In the case of YEVSSSLGYTSTRDVL [DEPDC5 543-558 wt], in test [1] (setting [6]), the “mean normalised NGS count” value was 0.00475.

Regarding ESVLQNTSPEGIPTIQ [SYNE1 3345-3360 wt], in test [1] (setting [8]), the “mean normalised NGS count” value came to 0.0118. For the molecule YTYNVSNLDVGQLSAP [KMT2D 4894-4909 mut O14686.R4904G], the “mean normalised NGS count” value was determined as 0.0273 in test [1] (setting [9]) and 0.00618 in test [3] (setting [8]). For SWDVPENDGRAPVKNY [TTN 27224-27239 mut Q8WZ42.G27233R], the “mean normalised NGS count” value in test [1] (setting [9]) came out at 0.0789. As to AQAAAVAGNIPGPGSV [SMAD4 460-475 wt], the “mean normalised NGS count” value in test [4] (setting [6]) turned out to be 1.74. FYQVSATRNEKMRHSI [BRCA2 2382-2397 mut P51587.L2396S]: the “mean normalised NGS count” value in test [1] (setting [9]) was found to be 0.475. Regarding YEVYGGENEVIPEVLR [STOX1 607-622 wt], in test [1] (setting [7]), the “mean normalised NGS count” value amounted to 0.0305. In the case of MFQLPTLNFSPEQVDS [SIX3 79-94 mut O95343.A93D], the “mean normalised NGS count” value stood at 0.329 in test [1] (setting [7]) and 0.0786 in test [3] (setting [8]).

Take YAFPPPSQYNVSEIPS [ARSB 449-464 mut P15848.W450C]: the “mean normalised NGS count” value in test [1] (setting [7]) was determined as 2.97. NTHLLPLHATDFEVLS [ZNF469 3007-3022 mut Q96JG9.R3014H]: the “mean normalised NGS count” value in test [2] amounted to 0.751. In the case of YSVSTIEPREDLLSPV [SLITRK5 833-848 wt], the “mean normalised NGS count” value in test [1] (setting [7]) was 0.0468.

In the case of YEVSSSLGYTSTGDVL [DEPDC5 543-558 mut O75140.R555G], in test [1] (setting [7]), the “mean normalised NGS count” value was determined as 0.087. In the case of KYHLSEKQDTYLSNSS [BRCA2 1729-1744 mut P51587.N1730Y], the “mean normalised NGS count” value amounted to 0.734 in test [1] (setting [6]) and 0.0567 in test [3] (setting [8]). As for TYALYLPETLPEDGGE [NEXN 636-651 mut Q0ZGT2.F645L], the “mean normalised NGS count” value in test [1] (setting [8]) was 0.00553. Take SILAELEELNQTEQTT [CBS 285-300 mut P35520.P290L]: the “mean normalised NGS count” value in test [5] (setting [8]) came out at 0.269. Regarding DFSPYLISDNSEQPMG [BRCA1 1123-1138 mut P38398.L1133S], the “mean normalised NGS count” value in test [1] (setting [6]) came out at 0.00468. Turning to ELSQKKQNLWLELRNY [BBS2 340-355 mut Q9BXC9.L349W], the “mean normalised NGS count” value in test [5] (setting [8]) stood at 0.141. MYDIISSTSKDSTKLT [NIPBL 344-359 mut Q6KC79.P351T]: the “mean normalised NGS count” value amounted to 0.0199 in test [1] (setting [6]) and 0.0145 in test [3] (setting [8]).
